“And” between values parts separate entries of the source, which are not always exact repeats. Equal values may be shown once. Screen size: about 150,000 compounds; about 180 (0.12%) were called active. This list was built around the results that the source calls inconclusive (neither active nor inactive); the mix of calls is not that of the screen. Calls follow the shape of the dose curve; as a rule, active = well fitted cell-killing curve with a large enough effect; inconclusive = small, poorly fitted or top-dose-only effect, or effect the other way; inactive = flat fitted curve, though single readings scatter. Potencies beside an inconclusive call are fits to weak or partial responses and may not hold up.
Experiment: GF-AFC viability counterscreen for inhibitors of alpha-synuclein gene (SNCA) expression; also: nearly all actives have a fitted effect of over 30% in size;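 as to activity change, negative = cytotoxicity: 0% = DMSO-treated cells and -100% = medium-only wells without cells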
Conditions: HEK-293-SNCA-luc viability, GF-AFC fluorescence, 24 h; activity change, negative = cytotoxicity: at 57.1 µM (top of the series) unless noted
Method in brief: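 Cytotoxicity counterscreen: after 24 h compound treatment of genome-edited SNCA-luciferase HEK-293 cells, live-cell protease substrate GF-AFC read by fluorescence after 30 min; activity scaled between DMSO (0%) and medium-only (-100%), curves Hill-fitted.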
Potency is read from the fitted curve at half-maximal effect; tags tell the direction and shape of the fitted curve.

| SMILES | activity change, negative = cytotoxicity | Potency |
| --- | --- | --- |
| c1ccc(-c2noc(Nc3ccc4c(c3)OCCO4)n2)cc1 | inactive: -3.18% |  |
| Cc1ccc(Nc2c3c(nc4ccccc24)CCC3)cc1F |  | inconclusive: 35.5 µM [cytotoxic, single point] |
| Cc1nn(-c2ccc(C(C)(C)C)cc2)c(C)c1[C@@H]1C=C[C@@H](NC(=O)CCCC(=O)O)C1 | inactive: 1.12% [at 87.6 µM] |  |
| CSc1ccc(NC(=O)C2CCN(C(=O)c3nnn4c3COC(c3ccc(C)cc3)C4)CC2)cc1 (centres undefined) | inactive: 1% |  |
| CC1=C[C@@H](CNCc2cccnc2)[C@H](C(C)C)C[C@H]1Cc1nnc(-c2ccccc2)o1 |  | inconclusive: 31.6 µM [cytotoxic, single point] |
| Cc1ccccc1-n1c(=O)c2ccccc2n(Cc2ccc(F)cc2)c1=O |  | inconclusive: 8.91 µM [cytotoxic, full curve, poor fit] |
| COc1ccc(C2CC(=O)N(Cc3cccc(C)c3)c3c2c(C)nn3-c2nc(C)cc(C)n2)c(OC)c1 (centres undefined) |  | inconclusive: 8.91 µM [cytotoxic, full curve, poor fit] |
| COCCCNC(=O)CCCN1C(=O)COc2ccc(C(=O)COc3ccc(OC)cc3)cc21 |  | inconclusive: 22.4 µM [cytotoxic, single point] |
| COc1cccc(N2CCN(C(=O)c3ccc4c(c3)N(C)C3CCCCCN3C4=O)CC2)c1 (centres undefined) | inactive: -14.3% [at 12.5 µM] |  |
| CCN1C(=O)C2CC3(CCN(C(=O)CC4CCCC4)CC3)CN2C1=O (centres undefined) | inactive: -4.91% |  |
| C#Cc1cccc(Nc2ncnc3cc(OC)c(OCCCCCCC(=O)NO)cc23)c1 |  | inconclusive: 24.1 µM [cytotoxic, single point] and inconclusive: 9.47 µM [cytotoxic, partial curve, poor fit] |
| COc1ccc2nc(C[C@@H]3C[C@@H](C(C)C)[C@H](CNCc4ccccn4)C=C3C)[nH]c2c1 |  | inconclusive: 28.2 µM [cytotoxic, partial curve, poor fit] |
| O=C1CCC2(CCNCC2)CCN1Cc1ccccc1 |  | inconclusive: 44.7 µM [cytotoxic, partial curve, poor fit] |
| Cc1ccc(C(=O)N2CCc3cc(CNC(=O)c4ccccc4F)ccc32)cc1 |  | inconclusive: 35.5 µM [cytotoxic, single point] |
| COc1ccc(/C=C/c2ccc3c(c2)C(=O)N2C[C@@H](NS(C)(=O)=O)C[C@H]2C(=O)N3)cc1 | inactive: -9.44% |  |
| CCCn1c(=N)c(C(=O)NCc2ccccc2)cc2c(=O)n3cccc(C)c3nc21 |  | inconclusive: 31.6 µM [rising, single point] |
| COc1ccc(Nc2ccc3c(n2)CN(Cc2ccccc2C)C(=O)CO3)cc1 |  | inconclusive: 28.2 µM [cytotoxic, single point] |
| COc1ccccc1-c1cccc(CN2CCCC(C(=O)NCc3ccc(C(F)(F)F)cc3)C2)c1 (centres undefined) |  | inconclusive: 7.94 µM [cytotoxic, full curve, poor fit] |
| COc1cc2c(NC3CCN(C(C)C)CC3)nc(C3CCCCC3)nc2cc1OCCCN1CCCC1 |  | inconclusive: 30.4 µM [cytotoxic, partial curve, poor fit] and inconclusive: 37.7 µM [cytotoxic, single point] |
| CO[C@H]1C(=O)N(C(C)C)[C@H]1C1CCN(S(=O)(=O)c2cccc3nsnc23)CC1 | inactive: 6.79% |  |

| SMILES | activity change, negative = cytotoxicity | Potency |
| --- | --- | --- |
| Cc1noc(C)c1CN1CCc2nc(C(=O)NCc3ccccc3)oc2CC1 | inactive: -1.66% [at 87.6 µM] |  |
| O=C(c1cc(F)ccc1Cl)N1CCC2(CC1)CC(O)CCO2 (centres undefined) | inactive: -1.64% |  |
| CC(=O)Nc1ccc(NC(=O)c2c(-c3ccccc3)noc2C)cc1 | inactive: -8.67% |  |
| Cc1nc(CN(C)C(=O)c2cc(Cn3c(C)nc4ccccc43)on2)cs1 | inactive: -5.12% |  |
| O=C1NCCCCCCN(S(=O)(=O)c2ccc3c(c2)OCCO3)[C@H]2CCCC[C@@H]12 |  | inconclusive: 11.2 µM [cytotoxic, partial curve, poor fit] |
| COc1cc2c(Nc3ccc(NC(=O)c4ccccc4)cc3)ncnc2cc1OCCCN1CCOCC1 |  | inconclusive: 10.6 µM [cytotoxic, partial curve, poor fit] |
| O=c1c(-c2cccs2)nc2cnc(N3CCNCC3)nc2n1-c1ccccc1 |  | inconclusive: 28.2 µM [rising, partial curve] |
| O=C(Nc1ccc([C@@H](O)[C@H]2COCC(=O)N2Cc2ccccc2)cc1)c1ccc(F)cc1 | inactive: -3.48% [at 87.6 µM] |  |
| CC(C)CNc1ccnc(NCc2csc(-c3ccccc3)n2)n1 |  | inconclusive: 5.97 µM [cytotoxic, full curve] |
| Cc1ccc(-n2nc(C)c([C@@H]3C=C[C@@H](NC(=O)c4cccs4)C3)c2C)cc1Cl |  | inconclusive: 39.8 µM [cytotoxic, partial curve, poor fit] |
| CCCc1noc(-c2nc(-c3ccc(OC)c(OC)c3)no2)n1 | inactive: -1.77% |  |
| COc1ccc(/C=C/C(=O)O[C@@H]2[C@@H](O[C@@H]3O[C@H](CO)[C@@H](O)[C@H](O)[C@H]3O)[C@@H](O)[C@H](O[C@H]3C4C=CO[C@@H](O[C@@H]5O[C@H](CO)[C@@H](O)[C@H](O)[C@H]5O)C4[C@@]4(CO)O[C@@H]34)O[C@H]2C)cc1 (some centres undefined) |  | inconclusive: 5.05 µM [cytotoxic, single point] |
| CCOC(=O)c1ccccc1NC(=O)c1cc2c(s1)-c1c(C)cccc1OC2 | inactive: 2.8% |  |
| CN(Cc1ccccc1)C(=O)CN1C(=O)COc2ccc(C(=O)COc3ccccc3F)cc21 |  | inconclusive: 22.4 µM [cytotoxic, single point] |
| Cc1nc(NCc2ccc(N3CCCC3=O)cc2)cc(C2CC(O)C2)n1 (centres undefined) | inactive: 1.25% |  |
| COc1cccc(NC(=O)Cc2c[nH]c3ncc(-c4cccnc4OC)cc23)c1 |  | inconclusive: 31.6 µM [cytotoxic, partial curve] |
| O=C(NCCc1cccs1)c1ccc(Cn2c(SCc3ccccc3)nc3cccnc32)cc1 |  | inconclusive: 10 µM [cytotoxic, partial curve, poor fit] |
| CCCN1C(=O)Cc2cc(C(=O)NCc3ccc(C)c(C)c3)ccc21 | inactive: 13.2% |  |
| Cc1ccc(NC(=O)C2Cn3cccc3C(=O)N2)cc1F (centres undefined) |  | inconclusive: 1.58 µM [rising, partial curve, poor fit] |
